The supplement of paper PMC7826260
Some of the results follow. Each Rep nickase domain was tested in vitro on the same pool of single strands at 3 µM enzyme and 37 °C for 1 h; the strands have 90 letters, of which the middle is given. Uncut reads are compared with the no-enzyme pool on a log2 scale; strong cutting gives strongly negative numbers. There is no active / inactive call. The scaling is to total reads; uncut strands gain when others are lost, and binding without cutting may add a little.

Tests used:
Test in all cases: uncleaved DNA left, log2 of reads against the no-enzyme library (log2 ratio); higher = less cleavage (more negative = more Rep cleavage of the k-mer); sequences stand for … in CTCGTCCG…ACCGGAGA
[1] = system: T1, Rep nickase domain of Muscovy duck circovirus
T1 sequence (Rep 1-111, printed without the tag): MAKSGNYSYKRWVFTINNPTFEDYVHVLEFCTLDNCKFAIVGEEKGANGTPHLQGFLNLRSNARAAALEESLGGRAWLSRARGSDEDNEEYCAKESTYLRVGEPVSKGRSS
Experimental: (§1)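 A pool of 90-nt single-stranded DNAs with seven random bases just before the constant AC of the nick site (name = the seven bases) was cut by 3 µM recombinant His6-SUMO-tagged Rep nickase domain (300 nM DNA, 50 mM HEPES pH 8.0, 50 mM NaCl, 1 mM MnCl2, 1 h, 37 °C, three replicates). Uncut DNA was amplified and sequenced.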

[2] = system: T2, Rep nickase domain of banana bunchy top virus
T2 sequence (Rep 1-94, printed without the tag): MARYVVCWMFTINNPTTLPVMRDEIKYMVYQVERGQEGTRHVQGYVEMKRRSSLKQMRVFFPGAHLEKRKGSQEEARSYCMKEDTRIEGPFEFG
Experimental: as §1

[3] = system: T3, Rep nickase domain of cabbage leaf curl virus
T3 sequence (Rep 1-116, printed without the tag): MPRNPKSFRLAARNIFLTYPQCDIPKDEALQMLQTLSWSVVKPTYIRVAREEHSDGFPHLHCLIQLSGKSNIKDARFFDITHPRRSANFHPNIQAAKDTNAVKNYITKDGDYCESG
Experimental: as §1

[4] = system: T4, Rep nickase domain of chickpea chlorotic dwarf virus
T4 sequence (Rep 1-124, printed without the tag): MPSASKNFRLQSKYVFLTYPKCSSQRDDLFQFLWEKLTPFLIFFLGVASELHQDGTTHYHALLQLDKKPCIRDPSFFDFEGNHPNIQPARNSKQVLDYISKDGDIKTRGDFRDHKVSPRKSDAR
Experimental: as §1

[5] = system: T5, Rep nickase domain of faba bean necrotic yellows virus
T5 sequence (Rep 1-98, printed without the tag): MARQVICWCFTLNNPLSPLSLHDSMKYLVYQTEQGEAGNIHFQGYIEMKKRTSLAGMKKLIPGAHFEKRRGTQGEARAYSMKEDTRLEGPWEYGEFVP
Experimental: as §1

[6] = system: T6, Rep nickase domain of maize striate mosaic virus
T6 sequence (Rep 1-117, printed without the tag): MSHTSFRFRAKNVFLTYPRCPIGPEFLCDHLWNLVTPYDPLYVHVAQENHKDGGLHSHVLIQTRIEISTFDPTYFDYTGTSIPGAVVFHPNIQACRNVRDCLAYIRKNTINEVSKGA
Experimental: as §1

[7] = system: T7, Rep nickase domain of porcine circovirus 2
T7 sequence (Rep 2-116, printed without the tag): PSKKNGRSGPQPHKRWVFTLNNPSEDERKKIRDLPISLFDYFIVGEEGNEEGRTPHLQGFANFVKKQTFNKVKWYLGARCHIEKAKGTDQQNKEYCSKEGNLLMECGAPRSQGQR
Experimental: as §1

[8] = system: T8, Rep nickase domain of tomato golden mosaic virus
T8 sequence (Rep 1-124, printed without the tag): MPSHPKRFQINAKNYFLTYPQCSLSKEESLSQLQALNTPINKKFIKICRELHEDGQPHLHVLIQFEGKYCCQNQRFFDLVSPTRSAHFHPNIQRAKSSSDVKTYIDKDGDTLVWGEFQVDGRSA
Experimental: as §1

[9] = system: T9, Rep nickase domain of tomato yellow leaf curl virus
T9 sequence (Rep 1-136, printed without the tag): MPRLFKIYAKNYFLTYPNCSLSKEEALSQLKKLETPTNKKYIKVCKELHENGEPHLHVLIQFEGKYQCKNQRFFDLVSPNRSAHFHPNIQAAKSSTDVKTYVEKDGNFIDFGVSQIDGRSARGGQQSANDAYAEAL
Experimental: as §1

[10] = system: T10, Rep nickase domain of wheat dwarf virus
T10 sequence (Rep 1-137, printed without the tag): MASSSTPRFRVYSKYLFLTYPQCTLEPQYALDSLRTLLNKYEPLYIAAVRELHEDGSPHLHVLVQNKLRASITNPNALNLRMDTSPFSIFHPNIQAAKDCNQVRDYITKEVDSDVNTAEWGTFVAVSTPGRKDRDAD
Experimental: as §1

Sequence | uncleaved DNA left (log2) [1] | uncleaved DNA left (log2) [2] | uncleaved DNA left (log2) [3] | uncleaved DNA left (log2) [4] | uncleaved DNA left (log2) [5] | uncleaved DNA left (log2) [6] | uncleaved DNA left (log2) [7] | uncleaved DNA left (log2) [8] | uncleaved DNA left (log2) [9] | uncleaved DNA left (log2) [10]
ATTTAGC | 0.088 | -0.00377 | -0.432 | -0.657 | 0.055 | -1.16 | 0.159 | 0.031 | 0.0506 | 0.00261
TCTACGC | -0.0513 | -0.102 | -0.0237 | -0.685 | -0.0297 | -0.409 | -0.053 | -0.0999 | -0.0967 | -0.155
ACCCGTT | 0.0162 | 0.123 | -0.163 | -1.5 | 0.0738 | -0.535 | -0.0849 | 0.196 | -0.0614 | 0.0931
TAGGCAT | 0.0844 | 0.15 | 0.546 | 1.38 | 0.169 | 1.77 | -0.281 | 0.138 | 0.238 | 0.165
GATGGTT | -0.0151 | -0.0829 | 0.295 | 0.0942 | -0.0339 | 1.28 | -0.0591 | -0.00622 | -0.158 | -0.0766
TGTTCCC | -0.0452 | 0.0465 | 0.222 | 0.36 | -0.0753 | 0.926 | -0.279 | -0.184 | -0.0227 | -0.0435
CGCCAGC | 0.0535 | -0.119 | 0.195 | 0.524 | -0.0108 | 0.419 | 0.0688 | -0.0296 | -0.0899 | -0.0526
AGGAACC | 0.051 | -0.00667 | 0.115 | 0.472 | -0.0852 | 0.455 | -0.438 | -0.109 | 0.0433 | 0.0763
GTACAGA | 0.0367 | 0.0712 | 0.42 | 0.928 | 0.0541 | 1.53 | 0.123 | 0.0989 | -0.0034 | 0.0607
AGGACGC | 0.0205 | 0.0977 | 0.703 | 1.68 | 0.0125 | 1.85 | 0.224 | 0.124 | 0.0492 | 0.101
CGTAGCT | -0.0151 | 0.0818 | 0.0809 | 0.0876 | 0.035 | 0.113 | 0.142 | 0.0984 | -0.12 | 0.0889
GAATTAA | 0.0305 | 0.062 | 0.143 | 0.399 | 0.0114 | 0.904 | -0.0721 | 0.164 | 0.112 | 0.0361
AGACCTG | -0.00574 | 0.0539 | 0.307 | 1.07 | -0.0403 | 1.72 | 0.0581 | -0.0597 | 0.0385 | 0.162
GATAGTG | 0.104 | -0.0186 | -0.448 | -0.429 | 0.119 | -1.04 | 0.176 | 0.0461 | 0.129 | -0.0418
GCGGTCA | 0.0623 | -0.0533 | 0.62 | 1.26 | 0.0307 | 1.73 | 0.148 | -0.0115 | 0.0447 | 0.0685
CAAGTCG | 0.159 | 0.0806 | -0.706 | 7.28e-05 | 0.0374 | -1 | 0.279 | 0.0418 | 0.11 | 0.0165

Sequence | uncleaved DNA left (log2) [1] | uncleaved DNA left (log2) [2] | uncleaved DNA left (log2) [3] | uncleaved DNA left (log2) [4] | uncleaved DNA left (log2) [5] | uncleaved DNA left (log2) [6] | uncleaved DNA left (log2) [7] | uncleaved DNA left (log2) [8] | uncleaved DNA left (log2) [9] | uncleaved DNA left (log2) [10]
CAACGAC | -0.0668 | -0.0952 | -0.182 | -0.586 | -0.00828 | -0.579 | 0.0336 | -0.135 | -0.0488 | -0.0667
TATCAAC | -0.0518 | -0.0677 | 0.193 | -0.987 | -0.116 | -0.168 | -0.062 | -0.074 | 0.0415 | 0.0971
GGTGCAA | 0.038 | 0.171 | 0.543 | 1.56 | -0.047 | 2.04 | 0.126 | 0.0627 | 0.102 | 0.12
CTCGGAC | -0.0479 | -0.0751 | 0.356 | 1.11 | 0.0778 | 1.23 | 0.0537 | 0.143 | -0.0373 | 0.0361
TCCTACT | -3.25 | -0.117 | -0.446 | -2.89 | 0.0635 | -0.593 | -3.46 | -0.104 | -0.0345 | -0.168
GACCACG | -0.0422 | -0.189 | -0.874 | -0.369 | -0.0488 | -0.989 | -0.196 | -0.0448 | -0.027 | -0.114
ACCGCGT | 0.0555 | -0.137 | -0.467 | 0.294 | -0.0217 | -0.206 | 0.161 | -0.11 | -0.0664 | -0.136
TCCCGGG | 0.047 | -0.0419 | 0.315 | 0.492 | -0.0691 | 0.192 | 0.157 | 0.0105 | -0.0668 | 0.074
GTAAGTC | 0.0663 | 0.105 | -2.2 | -2.06 | -0.00545 | 0.953 | 0.131 | -0.0997 | 0.124 | -0.295
AGGATGC | -0.0254 | -0.0897 | -0.286 | -0.0652 | -0.143 | -0.725 | 0.161 | -0.08 | -0.0213 | -0.069
CCATGAA | -0.0987 | -0.128 | -0.411 | -0.516 | -0.0851 | -1.02 | -0.233 | -0.00298 | -0.0364 | -0.232
TAATTGG | -0.0222 | -0.0535 | -1.02 | -0.863 | 0.0247 | -1.2 | 0.0782 | -0.0449 | -0.0317 | -0.0427
TTCGACT | 0.0232 | -0.125 | -0.00924 | -0.077 | -0.172 | 1.14 | -0.0539 | -0.172 | -0.0504 | -0.0418
AGACGTG | -0.017 | -0.0456 | -0.311 | -0.0348 | -0.0583 | -0.275 | 0.0339 | -0.0691 | -0.104 | -0.244
AACCAAG | -0.0908 | -0.0237 | -0.66 | -0.435 | 0.00346 | -1.19 | -0.0424 | 0.00865 | 0.0224 | -0.0344
